To fix the notation:
B1: TEV protease; numbered along this chain (parent)
chain: MGESLFKGPRDYNPISSSICHLTNESDGHTTSLYGIGFGPFIITNKHLFRRNNGTLVVQSLHGVFKVKDTTTLQQHLVDGRDMIIIRMPKDFPPFPQKLKFREPQREERICLVTTNFQTKSMSSMVSDTSCTFPSGDGIFWKHWIQTKDGQCGSPLVSTRDGFIVGIHSASNFTNTNNYFTSVPKNFMELLTNQEAQQWVSGWRLNADSVLWGGHKVFMVKPEEPFQPVKEATQL

Some of the results follow. The full chains were built here from the parent and the listed change. Inactive controls read about 0.05.

The variants in this assay derive from B1. In words: raw area under fraction-flipped curve 0-4 h after induction (AUC4h, not background-subtracted), DNA-recorder readout of cleavage of the substrate (dimensionless); higher = more cleavage of the substrate by the protease variant. The note with it: temperature: 34 °C; time window: 0-4 h after rhamnose induction. How it is done:
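In vivo DNA recorder in E. coli TOP10(DE3) ΔrhaA at 34 °C. Each TEVp single-site mutant (parent TEVp 0) is paired with a single-site variant of the 7-mer TEVs (canonical ENLYFQ|S). The substrate sits between flexible linkers in a Bxb1-sfGFP-TEVs-SsrA fusion, so cleavage stabilises Bxb1 and speeds flipping of a recombination array, read by NGS. The value is the raw area under the fraction-flipped curve over 0-4 h after rhamnose induction (AUC4h), with ≥20 reads per time point. It is not background-subtracted; inactive controls average about 0.047.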
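Further: Bxb1 expression induced with 0.2% (w/v) L-rhamnose at OD600 near 0.5, cultures sampled hourly, flipped fraction per protease–substrate barcode pair counted by paired-end Illumina sequencing.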

As to MGESLFKGPRDYNPISSSICHLTNESMGHTTSLYGIGFGPFIITNKHLFRRNNGTLVVQSLHGVFKVKDTTTLQQHLVDGRDMIIIRMPKDFPPFPQKLKFREPQREERICLVTTNFQTKSMSSMVSDTSCTFPSGDGIFWKHWIQTKDGQCGSPLVSTRDGFIVGIHSASNFTNTNNYFTSVPKNFMELLTNQEAQQWVSGWRLNADSVLWGGHKVFMVKPEEPFQPVKEATQL [D27M], the “area with substrate ENLYAQS” value was 0.0713, the “area with substrate ENLYCQS” value turned out to be 0.0739, the “area with substrate ENLYDQS” value is 0.0581 and the “area with substrate ENLYEQS” value came out at 0.0612. Also, the “area with substrate ENLYGQS” value stood at 0.0453, the “area with substrate ENLYHQS” value was determined as 0.0658, the “area with substrate ENLYIQS” value came to 0.111 and the “area with substrate ENLYKQS” value is 0.0588. Moreover, the “area with substrate ENLYMQS” value is 0.0803, the “area with substrate ENLYPQS” value worked out at 0.0737, the “area with substrate ENLYRQS” value was found to be 0.0656 and the “area with substrate ENLYSQS” value is 0.0701. For the same variant, the “area with substrate ENLYTQS” value came out at 0.0624, the “area with substrate ENLYVQS” value stood at 0.111 and the “area with substrate ENLYWQS” value was 0.0515.

Regarding MGTSLFKGPRDYNPISSSICHLTNESDGHTTSLYGIGFGPFIITNKHLFRRNNGTLVVQSLHGVFKVKDTTTLQQHLVDGRDMIIIRMPKDFPPFPQKLKFREPQREERICLVTTNFQTKSMSSMVSDTSCTFPSGDGIFWKHWIQTKDGQCGSPLVSTRDGFIVGIHSASNFTNTNNYFTSVPKNFMELLTNQEAQQWVSGWRLNADSVLWGGHKVFMVKPEEPFQPVKEATQL [E3T], the “area with substrate ENLYAQS” value came out at 0.0802, the “area with substrate ENLYDQS” value is 0.0614, the “area with substrate ENLYIQS” value is 0.129 and the “area with substrate ENLYVQS” value is 0.17.

As to MGLSLFKGPRDYNPISSSICHLTNESDGHTTSLYGIGFGPFIITNKHLFRRNNGTLVVQSLHGVFKVKDTTTLQQHLVDGRDMIIIRMPKDFPPFPQKLKFREPQREERICLVTTNFQTKSMSSMVSDTSCTFPSGDGIFWKHWIQTKDGQCGSPLVSTRDGFIVGIHSASNFTNTNNYFTSVPKNFMELLTNQEAQQWVSGWRLNADSVLWGGHKVFMVKPEEPFQPVKEATQL [E3L], the “area with substrate ENLYAQS” value is 0.0645, the “area with substrate ENLYCQS” value was found to be 0.0747, the “area with substrate ENLYDQS” value came out at 0.0624 and the “area with substrate ENLYEQS” value stood at 0.0674. The “area with substrate ENLYHQS” value was found to be 0.108, the “area with substrate ENLYIQS” value is 0.0865, the “area with substrate ENLYKQS” value is 0.0101 and the “area with substrate ENLYLQS” value was 0.0646. In addition, the “area with substrate ENLYMQS” value came out at 0.0573, the “area with substrate ENLYNQS” value was determined as 0.0614, the “area with substrate ENLYPQS” value was determined as 0.0607 and the “area with substrate ENLYQQS” value stood at 0.0529. Further, the “area with substrate ENLYRQS” value was 0.0601, the “area with substrate ENLYWQS” value was found to be 0.0664 and the “area with substrate ENLYYQS” value was 0.0688.

With MGESLFKGPYDYNPISSSICHLTNESDGHTTSLYGIGFGPFIITNKHLFRRNNGTLVVQSLHGVFKVKDTTTLQQHLVDGRDMIIIRMPKDFPPFPQKLKFREPQREERICLVTTNFQTKSMSSMVSDTSCTFPSGDGIFWKHWIQTKDGQCGSPLVSTRDGFIVGIHSASNFTNTNNYFTSVPKNFMELLTNQEAQQWVSGWRLNADSVLWGGHKVFMVKPEEPFQPVKEATQL [R10Y], the “area with substrate ENLYAQS” value stood at 0.0424, the “area with substrate ENLYCQS” value was 0.104, the “area with substrate ENLYDQS” value was found to be 0.0621 and the “area with substrate ENLYEQS” value was 0.0642. The “area with substrate ENLYGQS” value is 0.0654, the “area with substrate ENLYHQS” value was determined as 0.0544, the “area with substrate ENLYIQS” value is 0.101 and the “area with substrate ENLYKQS” value is 0.0573. Further, the “area with substrate ENLYMQS” value was 0.0684, the “area with substrate ENLYNQS” value was found to be 0.0494, the “area with substrate ENLYPQS” value is 0.0699 and the “area with substrate ENLYQQS” value amounted to 0.0562. Moreover, the “area with substrate ENLYRQS” value was found to be 0.0627, the “area with substrate ENLYVQS” value turned out to be 0.0594 and the “area with substrate ENLYYQS” value worked out at 0.0697.

Consider MGESLFKGPFDYNPISSSICHLTNESDGHTTSLYGIGFGPFIITNKHLFRRNNGTLVVQSLHGVFKVKDTTTLQQHLVDGRDMIIIRMPKDFPPFPQKLKFREPQREERICLVTTNFQTKSMSSMVSDTSCTFPSGDGIFWKHWIQTKDGQCGSPLVSTRDGFIVGIHSASNFTNTNNYFTSVPKNFMELLTNQEAQQWVSGWRLNADSVLWGGHKVFMVKPEEPFQPVKEATQL [R10F], for which the “area with substrate ENLYAQS” value amounted to 0.0774, the “area with substrate ENLYCQS” value is 0.0845, the “area with substrate ENLYDQS” value was 0.0661 and the “area with substrate ENLYEQS” value was determined as 0.0684. Further, the “area with substrate ENLYGQS” value turned out to be 0.0595, the “area with substrate ENLYHQS” value was 0.0662, the “area with substrate ENLYIQS” value is 0.0883 and the “area with substrate ENLYKQS” value is 0.0652. Further, the “area with substrate ENLYLQS” value was 0.0644, the “area with substrate ENLYMQS” value was 0.0729, the “area with substrate ENLYNQS” value came to 0.0676 and the “area with substrate ENLYPQS” value was 0.0658. The “area with substrate ENLYQQS” value was 0.0734, the “area with substrate ENLYRQS” value was 0.059, the “area with substrate ENLYSQS” value worked out at 0.163 and the “area with substrate ENLYWQS” value came to 0.0721. Moreover, the “area with substrate ENLYYQS” value was 0.0675.

As for MGESLFKGPRCYNPISSSICHLTNESDGHTTSLYGIGFGPFIITNKHLFRRNNGTLVVQSLHGVFKVKDTTTLQQHLVDGRDMIIIRMPKDFPPFPQKLKFREPQREERICLVTTNFQTKSMSSMVSDTSCTFPSGDGIFWKHWIQTKDGQCGSPLVSTRDGFIVGIHSASNFTNTNNYFTSVPKNFMELLTNQEAQQWVSGWRLNADSVLWGGHKVFMVKPEEPFQPVKEATQL [D11C], the “area with substrate ENLYAQS” value was determined as 0.0743, the “area with substrate ENLYCQS” value amounted to 0.0817, the “area with substrate ENLYEQS” value turned out to be 0.0623 and the “area with substrate ENLYGQS” value turned out to be 0.0797. The “area with substrate ENLYHQS” value was 0.056, the “area with substrate ENLYIQS” value turned out to be 0.124, the “area with substrate ENLYKQS” value stood at 0.0554 and the “area with substrate ENLYMQS” value stood at 0.084. Besides, the “area with substrate ENLYNQS” value is 0.0696, the “area with substrate ENLYPQS” value was found to be 0.0732, the “area with substrate ENLYQQS” value came to 0.059 and the “area with substrate ENLYRQS” value came out at 0.0677. The “area with substrate ENLYTQS” value is 0.065, the “area with substrate ENLYVQS” value is 0.132, the “area with substrate ENLYWQS” value amounted to 0.0805 and the “area with substrate ENLYYQS” value was 0.0536.

Consider MGESLFKGPRDYNLISSSICHLTNESDGHTTSLYGIGFGPFIITNKHLFRRNNGTLVVQSLHGVFKVKDTTTLQQHLVDGRDMIIIRMPKDFPPFPQKLKFREPQREERICLVTTNFQTKSMSSMVSDTSCTFPSGDGIFWKHWIQTKDGQCGSPLVSTRDGFIVGIHSASNFTNTNNYFTSVPKNFMELLTNQEAQQWVSGWRLNADSVLWGGHKVFMVKPEEPFQPVKEATQL [P14L], for which the “area with substrate ENLYAQS” value came out at 0.0893, the “area with substrate ENLYDQS” value stood at 0.0593, the “area with substrate ENLYEQS” value was 0.12 and the “area with substrate ENLYGQS” value was determined as 0.067. Also, the “area with substrate ENLYHQS” value stood at 0.0728, the “area with substrate ENLYIQS” value was determined as 0.126, the “area with substrate ENLYKQS” value is 0.0355 and the “area with substrate ENLYLQS” value is 0.0994. Further, the “area with substrate ENLYMQS” value was determined as 0.0839, the “area with substrate ENLYNQS” value was 0.0799, the “area with substrate ENLYPQS” value came out at 0.0788 and the “area with substrate ENLYQQS” value came to 0.0735. Moreover, the “area with substrate ENLYRQS” value was 0.0602, the “area with substrate ENLYSQS” value worked out at 0.0873, the “area with substrate ENLYVQS” value was determined as 0.169 and the “area with substrate ENLYWQS” value is 0.0855.

As to MGESLWKGPRDYNPISSSICHLTNESDGHTTSLYGIGFGPFIITNKHLFRRNNGTLVVQSLHGVFKVKDTTTLQQHLVDGRDMIIIRMPKDFPPFPQKLKFREPQREERICLVTTNFQTKSMSSMVSDTSCTFPSGDGIFWKHWIQTKDGQCGSPLVSTRDGFIVGIHSASNFTNTNNYFTSVPKNFMELLTNQEAQQWVSGWRLNADSVLWGGHKVFMVKPEEPFQPVKEATQL [F6W], the “area with substrate ENLYAQS” value amounted to 0.0661, the “area with substrate ENLYDQS” value is 0.0676, the “area with substrate ENLYEQS” value was determined as 0.056 and the “area with substrate ENLYGQS” value is 0.0527. The “area with substrate ENLYHQS” value is 0.0635, the “area with substrate ENLYKQS” value was 0.0601, the “area with substrate ENLYMQS” value was 0.0786 and the “area with substrate ENLYNQS” value was 0.058. Also, the “area with substrate ENLYPQS” value turned out to be 0.0661, the “area with substrate ENLYQQS” value is 0.0539, the “area with substrate ENLYRQS” value was found to be 0.0627 and the “area with substrate ENLYTQS” value is 0.0808. The “area with substrate ENLYVQS” value turned out to be 0.101 and the “area with substrate ENLYWQS” value was 0.0776.

With MGESLFKGPRDYNPISSSICHLTNMSDGHTTSLYGIGFGPFIITNKHLFRRNNGTLVVQSLHGVFKVKDTTTLQQHLVDGRDMIIIRMPKDFPPFPQKLKFREPQREERICLVTTNFQTKSMSSMVSDTSCTFPSGDGIFWKHWIQTKDGQCGSPLVSTRDGFIVGIHSASNFTNTNNYFTSVPKNFMELLTNQEAQQWVSGWRLNADSVLWGGHKVFMVKPEEPFQPVKEATQL [E25M], the “area with substrate ENLYAQS” value came to 0.0734, the “area with substrate ENLYDQS” value is 0.0705, the “area with substrate ENLYEQS” value was 0.0576 and the “area with substrate ENLYGQS” value is 0.0656. Further, the “area with substrate ENLYHQS” value stood at 0.0734, the “area with substrate ENLYIQS” value worked out at 0.173, the “area with substrate ENLYKQS” value turned out to be 0.07 and the “area with substrate ENLYLQS” value amounted to 0.0818. Further, the “area with substrate ENLYMQS” value came out at 0.089, the “area with substrate ENLYNQS” value is 0.088, the “area with substrate ENLYPQS” value worked out at 0.0669 and the “area with substrate ENLYQQS” value is 0.0538. Besides, the “area with substrate ENLYRQS” value amounted to 0.0345, the “area with substrate ENLYSQS” value is 0.0873, the “area with substrate ENLYTQS” value was 0.103 and the “area with substrate ENLYVQS” value worked out at 0.124. Moreover, the “area with substrate ENLYWQS” value was found to be 0.0652 and the “area with substrate ENLYYQS” value came out at 0.0663.

Source of the values: the supplement of paper PMC12217912.
